The values that follow come from PMC4336329 (PLoS ONE, 2015).

SMILES strings stand for the structures. Among all 310,000 compounds or so, about 2,200 (0.71%) showed an effect of 50% or more. Effects have a minus sign here. This is one part of the list. Where a SMILES comes first, the peptide text is derived from it. The star is where a group is joined. Boc = CC(C)(C)OC(=O)*

For the experiment, the target named is human ether-à-go-go-related gene (hERG) potassium channel (human, UniProt Q12809). The experiment can be described thus: primary screen, population patch clamp on CHO cells stably expressing hERG.
human ether-à-go-go-related gene (hERG) potassium channel, sequence (Q12809 whole entry, looked up): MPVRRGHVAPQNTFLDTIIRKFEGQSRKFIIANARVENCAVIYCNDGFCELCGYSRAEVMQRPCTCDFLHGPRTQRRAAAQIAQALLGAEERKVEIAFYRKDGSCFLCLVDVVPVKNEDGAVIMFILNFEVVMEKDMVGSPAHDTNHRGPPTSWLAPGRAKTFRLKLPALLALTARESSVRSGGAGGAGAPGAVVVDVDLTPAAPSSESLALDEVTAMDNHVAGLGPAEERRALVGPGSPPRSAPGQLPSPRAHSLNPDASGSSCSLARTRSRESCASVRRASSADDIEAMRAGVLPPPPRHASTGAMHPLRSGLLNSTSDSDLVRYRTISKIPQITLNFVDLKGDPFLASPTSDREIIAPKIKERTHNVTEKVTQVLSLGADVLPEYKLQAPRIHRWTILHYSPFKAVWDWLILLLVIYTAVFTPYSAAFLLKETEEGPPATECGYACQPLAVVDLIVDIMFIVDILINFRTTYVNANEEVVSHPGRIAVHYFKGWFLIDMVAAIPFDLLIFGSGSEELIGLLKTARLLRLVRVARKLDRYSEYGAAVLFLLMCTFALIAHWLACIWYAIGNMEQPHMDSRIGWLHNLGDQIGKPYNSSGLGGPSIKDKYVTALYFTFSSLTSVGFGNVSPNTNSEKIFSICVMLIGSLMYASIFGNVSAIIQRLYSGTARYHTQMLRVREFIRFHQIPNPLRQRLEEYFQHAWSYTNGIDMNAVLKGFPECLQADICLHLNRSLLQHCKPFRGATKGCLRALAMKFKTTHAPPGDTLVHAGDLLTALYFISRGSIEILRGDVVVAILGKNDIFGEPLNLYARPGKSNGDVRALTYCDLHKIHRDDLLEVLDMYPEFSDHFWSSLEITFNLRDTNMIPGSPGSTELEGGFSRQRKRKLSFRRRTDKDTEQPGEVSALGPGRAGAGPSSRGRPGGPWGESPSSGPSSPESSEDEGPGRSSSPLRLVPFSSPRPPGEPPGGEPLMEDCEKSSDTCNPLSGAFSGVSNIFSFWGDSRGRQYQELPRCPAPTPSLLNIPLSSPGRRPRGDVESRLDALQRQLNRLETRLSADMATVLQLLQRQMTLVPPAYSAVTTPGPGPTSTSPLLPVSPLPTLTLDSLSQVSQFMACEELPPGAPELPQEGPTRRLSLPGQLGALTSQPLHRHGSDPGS
In the case of `COc1cc(OC)cc(C(=O)Nc2ccccc2N2CCOCC2)c1`, the “hERG current change (%, negative = inhibition) at 1uM” value is recorded as -7.1%.

For the compound `CCC1CCCCN1CCCNC(=O)CS(=O)(=O)Cc1nc(-c2cccc(OC)c2)oc1C` (stereo not drawn), the “hERG current change (%, negative = inhibition) at 1uM” value was 1.71%.

`O=C(Nc1ccc(Oc2cccc(C(F)(F)F)c2)nc1)c1cccs1`: the “hERG current change (%, negative = inhibition) at 1uM” value is on record as 12.6%. The result for `C=CCNc1nc(Nc2ccc(-c3nc4ccccc4o3)cc2)nc(N2CCOCC2)n1` reads 2.46%. The result for `Cc1noc(C)c1CSc1nc2ccccc2c(=O)n1-c1ccc(F)cc1F` reads -5.75%; that for `CCN(CC(=O)Nc1ccc(NC(C)=O)cc1)C(=O)c1cccc(S(=O)(=O)N2CCCC2)c1`, 9.12%; that for `COc1ccccc1NC(=O)c1cc(S(=O)(=O)N2CCc3ccccc32)ccc1F`, 7.55%. As for `CCOC(=O)/C(N=Nc1ccc(F)cc1)=C(/O)c1ccc([N+](=O)[O-])cc1`, the figure is 13.8%; as for `CCCCc1ccc(N=N/C(C(=O)Nc2cc(OC)c(NC(C)=O)cc2OC)=C(/C)O)cc1`, 16.4%. On to `CC1=C(C(=O)N(C)C)C(c2ccc(N3CCOCC3)cc2)NC(=O)N1` (stereo not drawn), for which the “hERG current change (%, negative = inhibition) at 1uM” value came to 14.9%. As for `NC(=O)CC(NC(=O)Cc1cccc2ccccc12)c1ccc(NCc2ccccc2)c([N+](=O)[O-])c1` (stereo not drawn), the figure is -0.125%. The result for `CC(C)c1nc2n[nH]c(N)c2c2c1CSC(C)(C)C2` reads 3.45%; that for `COCCN(C(=O)COC(=O)Cc1ccc(Cl)cc1Cl)c1c(N)n(Cc2ccccc2)c(=O)[nH]c1=O`, 11.2%. As to `CC(C1CCN(Cc2nc(C3CC3)no2)CC1)N1CCOCC1` (stereo not drawn), the “hERG current change (%, negative = inhibition) at 1uM” value was 8.89%. The result for `CCc1ccc([C@@H]2C[C@H]3CN(Cc4ccccc4OC)C(=O)[C@]34CCCN24)cc1` reads -28.8%; that for `CCN1C(=O)/C(=C\C(=O)c2cccs2)c2cc(Br)ccc21`, 11.7%. For `Cc1cccc(OP(N)(N)=O)c1C`, the “hERG current change (%, negative = inhibition) at 1uM” value was 18%.

As to `Cc1nccc(-c2ccc3c(c2)OCO3)n1`, the “hERG current change (%, negative = inhibition) at 1uM” value is -2.29%.

For `Cc1ccc(/C=C/c2onc(C)c2S(=O)(=O)N2CCC(C(=O)N3CCN(C)CC3)CC2)cc1`, the “hERG current change (%, negative = inhibition) at 1uM” value is 14.1%. Take `CCCC(=O)N1CCN(c2nc3ccc(Br)cc3s2)CC1`: the “hERG current change (%, negative = inhibition) at 1uM” value is recorded as -25.2%. As for `Oc1c(N=Nc2ccccn2)ccc2ccccc12`, the figure is 15.9%; as for `COc1ccc(N2CCN(C(=O)CSc3ccc([N+](=O)[O-])cc3)CC2)cc1`, -85.1%; as for `COc1ccc(S(=O)(=O)NCc2cccnc2)cc1NC(=O)c1ccc(C)cc1`, -0.856%. With `Nc1nc(SCC(=O)Nc2ccc(Cl)c([N+](=O)[O-])c2)n[nH]1`, the “hERG current change (%, negative = inhibition) at 1uM” value is 6.98%.

With `CCc1nc(C)cn1S(=O)(=O)c1cc(C)c(OC)cc1C`, the “hERG current change (%, negative = inhibition) at 1uM” value was 4.46%. As for `CC(NCC#Cc1ccccc1)C(O)c1ccccc1.Cl` (stereo not drawn), the figure is 11.3%. The result for `CCCn1c(=O)c(/C(N)=N/O)nn(-c2cccc(C(F)(F)F)c2)c1=O` reads 6.69%; that for `CC(C)COc1ccc(-c2nnc(-c3ccco3)o2)cc1`, 6.55%. As for `CC(C)OC1CCCC(O)C1CC(=O)O` (stereo not drawn), the figure is 11%; as for `O=C(NNc1cccc(Cl)n1)C1CC1`, 5.83%; as for `Nc1c(-c2ccccc2)cnn1-c1cccc(Cl)c1`, 8.5%. With `COc1ccc(C)cc1S(=O)(=O)N(CC(=O)N1CCCC1)c1ccccc1`, the “hERG current change (%, negative = inhibition) at 1uM” value is 4.54%. For the compound `S=C(Nc1ccc2c(c1)OCO2)N1CCCC1`, the “hERG current change (%, negative = inhibition) at 1uM” value is on record as 9.91%.

For `CCOC(=O)c1[nH]c(C)c(C(=O)OCC(=O)Nc2sc3c(c2C#N)CCCCC3)c1C`, the “hERG current change (%, negative = inhibition) at 1uM” value is given as 5.06%.

As to `COCCNC(=O)c1ccccc1NC(=O)Cc1ccccc1[N+](=O)[O-]`, the “hERG current change (%, negative = inhibition) at 1uM” value is 12.1%.

In the case of `O=C(CSc1nc(-c2cccs2)cc(C(F)(F)F)n1)Nc1cc(OCC(F)(F)C(F)F)cc([N+](=O)[O-])c1`, the “hERG current change (%, negative = inhibition) at 1uM” value was 17.8%. As for `CCNC(=S)SCCOc1ccc(C)cc1`, the figure is 11.6%.

Regarding `Cc1cccc(/C(N)=N/OC(=O)N2CCOCC2)c1`, the “hERG current change (%, negative = inhibition) at 1uM” value is reported as -1.56%. The result for `CN(C1=C(N2CCOCC2)C(=O)c2ccccc2C1=O)c1ccccc1` reads 4.9%. As for `Cc1ccc(-c2sc(C)nc2CC(=O)O)cc1`, the figure is 7.75%; as for `Cc1cnc(N)c2c(=O)oc3ccccc3c12`, 16.8%. As for `CSc1nc2ccccc2n1CC(=O)Nc1cc(C(F)(F)F)ccc1N1CCOCC1`, the figure is 9.52%; as for `COc1ccccc1-n1cnc2cc(C(=O)N3CCOCC3)ccc21`, 8.75%; as for `Nc1ccc(-c2n[nH]c(=O)c3ccccc23)cc1N`, 2.14%. On to `COc1cccc(/C=C2\SC(=S)NC2=O)c1OS(=O)(=O)c1ccc(NC(C)=O)cc1`, for which the “hERG current change (%, negative = inhibition) at 1uM” value came to 14.5%. The result for `COc1ccc(C(=O)Nc2ccc3c(c2)nc(CN2CCCC2)n3C)cc1` reads -1.45%; that for `CCN(CC)S(=O)(=O)c1cccc(C(=O)OCc2cc(=O)n3nc(C)sc3n2)c1`, -2.8%; that for `COc1ccc(NC(=O)COC(=O)c2ccc(OCc3ccccc3Cl)c(OC)c2)c(OC)c1`, 7.47%.

As for `Cn1c(N)c(S(=O)(=O)N2CCN(c3ccccc3)CC2)c(=O)n(C)c1=O`, the “hERG current change (%, negative = inhibition) at 1uM” value is -13.6%. Turning to `Cc1cc(C)nc(N(C#N)CN2C(=O)c3ccccc3C2=O)n1`, the “hERG current change (%, negative = inhibition) at 1uM” value is reported as -4.19%. As for `COC(=O)C(CC(C)C)NC(=O)C(Cc1ccccc1)NC(=O)C1CCCN1C(=O)OC(C)(C)C` (stereo not drawn) (Boc-Pro-Phe-Leu-OMe; configuration not given here), the figure is 34.9%; as for `c1ccc(-c2csc(N3CCN(c4ccccn4)CC3)n2)cc1`, 5.73%; as for `Cc1nnc(NC(=O)C2CC(=O)N(C(C)c3ccccc3)C2)s1` (stereo not drawn), 9.34%. The result for `COC(=O)c1ccc(NC(=O)C2CCCN2S(=O)(=O)c2ccc(C)cc2)cc1` (stereo not drawn) reads 6.25%. The result for `CCCN1CCN(C(=O)CCc2nnc3ccc(N4CCN(c5cccc(OC)c5)CC4)nn23)CC1` reads -4.64%; that for `COc1ccc2c(c1)C=C(CN1CCC(CO)(CCc3ccccc3)CC1)CO2`, -27.2%; that for `OC(COCc1ccccc1)CN1CCN(c2ccccc2)CC1` (stereo not drawn), -6.24%. With `Cc1cc(C)c(C#N)c(SCc2ccccc2[N+](=O)[O-])n1`, the “hERG current change (%, negative = inhibition) at 1uM” value is given as 17.8%.

Turning to `CCCCC(CC)CNC(=O)C(Cc1ccccc1)NS(=O)(=O)c1ccc2c(c1)CCC(=O)N2` (stereo not drawn), the “hERG current change (%, negative = inhibition) at 1uM” value turned out to be 9.1%. As for `CCCNS(=O)(=O)c1cc(CN2C(=O)c3cccnc3C2=O)ccc1OC`, the figure is 15.9%; as for `O=C(Nc1nc(-c2ccc(S(=O)(=O)N3CCCC3)cc2)cs1)C1COc2ccccc2O1` (stereo not drawn), 12.3%; as for `Br.CCC(=O)Nc1nc(C)c(-c2csc(Nc3cccc(O)c3)n2)s1`, -4.59%.

For `O=C(CSC(=S)N1CCCCC1)c1ccccc1`, the “hERG current change (%, negative = inhibition) at 1uM” value is 15.4%. The result for `COc1cc(NC(=O)c2cc(-c3ccc(C)cc3)on2)cc(OC)c1OC` reads 17.1%; that for `C/C(=N/NC(=O)CCC(=O)Nc1cccc(Cl)c1)c1ccc(C)cc1`, 13%.

In the case of `O=C(CSc1cccc[n+]1[O-])Nc1ccccc1Oc1ccccc1`, the “hERG current change (%, negative = inhibition) at 1uM” value is 14.9%. As to `CC1(C)COC(Nc2cccc(Cl)c2)=N1`, the “hERG current change (%, negative = inhibition) at 1uM” value was 13.4%. As for `O=C(CSc1ccc(/C=N/NC(=O)c2cccc(F)c2)o1)Nc1ccccc1`, the figure is 12.8%; as for `CCOCCCNC(=O)c1ccc2nc(-c3ccc(OC)c(OC)c3)c(-c3ccc(OC)c(OC)c3)nc2c1`, 15.6%.

In the case of `O=C(Nc1cccnc1)c1ccc(Br)s1`, the “hERG current change (%, negative = inhibition) at 1uM” value stood at 7.81%. As for `CSc1ccccc1OCc1cc(C(=O)N2CCc3sccc3C2)no1`, the figure is 14.4%; as for `Cc1cc(C)cc(N2C(=O)CC(c3ccccc3)CC2=O)c1`, 10.3%. The result for `CNc1cc([N+](=O)[O-])ccc1OCc1ccccc1` reads 7.45%. The result for `Cn1c(CC(=O)NNC(=O)c2ccc(F)cc2F)nc2ccccc21` reads 9.01%. Take `CCCOc1ccc(C(=O)NC(=S)Nc2nc(C)c(C(=O)N(C)C)s2)cc1`: the “hERG current change (%, negative = inhibition) at 1uM” value came out at 2.2%. The result for `COc1ccccc1C(=O)Nc1ccnn1C1CCN(Cc2csc(C(C)=O)c2)CC1` reads -50.9%. The result for `Cc1ccc(NC(=S)NC2CC3CCC(C2)N3Cc2ccco2)cc1C` (stereo not drawn) reads -7.37%; that for `C/C(=C\C(=O)Nc1nccs1)c1ccccc1`, 6.44%; that for `COc1cccc(OCC(=O)O/N=C(\N)c2ccncc2)c1`, 11.6%. In the case of `CC(SCc1ccccc1)C(=O)Nc1ccc2c(c1)OCO2` (stereo not drawn), the “hERG current change (%, negative = inhibition) at 1uM” value was 3.57%.

For the compound `Cc1cc2cc(CN(CCCN3CCOCC3)C(=O)NC3CCCCC3)c(=O)[nH]c2cc1C`, the “hERG current change (%, negative = inhibition) at 1uM” value is listed as -6.62%. As for `COC(=O)CCC(=O)N1CCCC(N2CCN(c3ccc(OC)cc3)CC2)C1` (stereo not drawn), the figure is 10.5%.

On to `CCOCCCn1cnc2c(c1=O)c1nc3ccccc3nc1n2-c1ccccc1`, for which the “hERG current change (%, negative = inhibition) at 1uM” value is listed as -12.9%. As for `COc1ccc(C(=O)CC(=O)C(=O)Nc2cccc(F)c2)cc1`, the figure is 3.92%; as for `N#C/C(=C\c1ccncc1)c1nc2ccccc2c(=O)[nH]1`, 14.2%.

With `Cc1ccccc1OCCCC(=O)Nc1ccc(Br)cc1`, the “hERG current change (%, negative = inhibition) at 1uM” value is listed as 8.34%. As for `Cc1ccccc1-n1ncc2c1CC(C)(C)CC2NC(=O)CN1CCCC1=O` (stereo not drawn), the figure is 16.4%.
